Results as given in PubChem BioAssay AID1346428 (National Center for Advancing Translational Sciences (NCATS), 2018).
Where “and” joins values, the source holds several entries; their conditions need not be identical. Equal values may be shown once. Screen size: about 48,000 compounds; about 1,200 (2.5%) were called active. Another 2% or so got no clear call; they are omitted.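 How the source made its calls: active means activation of at least 60% and not above a set upper limit (about 1 call in 100 departs from these limits); inconclusive means activation of 40% to 60%, or above that upper limit; inactive means activation under 40%.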 This is one part of the list.

These molecules were tested against Probable G-protein coupled receptor 32 (Homo sapiens) (UniProt O75388) (assay: qHTS for Agonists of Human Resolvin D1 Receptor DRV1). Conditions: CHO-K1 GPR32 beta-arrestin PathHunter luminescence, 90 min; at 76.9 µM; stronger effect = higher value; zero percent set by DMSO-only wells.
UniProt O75388, sequence (O75388 whole entry, looked up): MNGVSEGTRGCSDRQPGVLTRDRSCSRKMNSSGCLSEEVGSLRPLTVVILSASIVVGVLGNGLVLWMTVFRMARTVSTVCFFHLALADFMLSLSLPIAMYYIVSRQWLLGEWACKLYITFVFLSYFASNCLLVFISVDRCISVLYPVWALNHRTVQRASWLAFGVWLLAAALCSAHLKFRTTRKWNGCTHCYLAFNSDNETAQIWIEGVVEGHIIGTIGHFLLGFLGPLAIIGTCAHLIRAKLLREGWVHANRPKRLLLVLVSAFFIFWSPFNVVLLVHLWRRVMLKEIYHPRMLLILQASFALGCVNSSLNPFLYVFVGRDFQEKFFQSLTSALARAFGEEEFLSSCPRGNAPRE
How it was run: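 Engineered CHO-K1 line co-expressing GPR32-ProLink and EA-beta-arrestin. Compound treatment lasted 90 min at 37 °C. Luminescence was recorded after 1 h with substrate at ambient temperature, relative to DMSO basal wells.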
Further: 0% is about no effect.

SMILES	activation
Cc1ccccc1NC(=O)CCn1cnc2onc(-c3ccc(F)cc3)c2c1=O	inactive: 0.571%
CCCCC(CC)CNC(=O)C1CCN(S(=O)(=O)c2cccc3nsnc23)CC1 (centres undefined)	inactive: 0.934%
Cc1ccc(C)c(N2CCN(CCCNC(=O)Cn3ncc4c5ccccc5n(C)c4c3=O)CC2)c1	inactive: -9.82%
CCOc1ccc(NC(=O)CCn2cnc3onc(-c4ccc(F)cc4)c3c2=O)cc1	inactive: 44.3%
N#Cc1nc(-c2ccc(COc3ccc(Cl)cc3)o2)oc1N1CCN(c2ccccc2)CC1	inactive: -0.197%
COc1ccccc1N1CCN(C(=O)c2cc3c(=O)n(Cc4ccco4)ccc3nc2C)CC1	inactive: -3.73%
Cc1ccc(NS(=O)(=O)c2c(C(=O)N3CCC(C)CC3)c(C)n(C)c2C)cc1Cl	inactive: -12.6%
O=C(O)[C@@H](O)[C@H](O)[C@H](O)[C@@H](O)C(=O)O	inactive: -10%
CCOC(=O)c1c(S(=O)(=O)N2CCCC(C(=O)N3CCN(c4cccc(C)c4C)CC3)C2)c(C)n(C)c1C (centres undefined)	inactive: 9.77%
Cc1ccc(CN2CCSc3ccc(C(=O)N4CCN(c5cc(C)ccc5C)CC4)cc32)cc1	inactive: -10.2%
O=C(CSc1nc2c(oc3ccccc32)c(=O)n1-c1ccccc1F)Nc1ccccc1	inactive: 14%
OC[C@H]1O[C@H](O[C@]2(CCl)O[C@H](CCl)[C@@H](O)[C@@H]2O)[C@H](O)[C@@H](O)[C@H]1Cl	inactive: 6.43%
Cc1ccc(Nc2c3c(nc4nncn24)CCC3)cc1C	inactive: -14.4%
Cn1c(=O)cc(SCC(=O)N2CCN(c3ccc(F)cc3)CC2)c2ccc(Cl)cc21	inactive: 8.85%
CC(C)CN1CCc2nc(N3CCN(C)CC3)ncc2C1	inactive: -4.27%
CCOc1cc(S(=O)(=O)n2ccnc2C(C)C)ccc1Cl	inactive: -7.64%
O=C(CN1C(=O)COc2ccc(S(=O)(=O)N3CCOCC3)cc21)NCc1ccc(F)cc1	inactive: -15.6%
CN(Cc1ccccc1)C(=O)C1CCN(S(=O)(=O)Cc2ccccc2)CC1	inactive: 44.4%
COc1cc(OC)c(N(C)C(=O)Cn2ncc3c([nH]c4ccccc43)c2=O)cc1Cl	inactive: 27.8%
O=c1c2cc3c(cc2nc2sc(Nc4ccc(F)c(Cl)c4)nn12)OCO3	inactive: -3.27%
Cc1nc(C)c(-c2ccc(SCC(=O)Nc3ccc(F)c(F)c3)nn2)s1	inactive: 13.8%
Cc1ccc(NC(=O)c2cc(S(=O)(=O)N3CCCC(C)C3)cn2C)c(Br)c1 (centres undefined)	inactive: -8.78%
COc1cc(/C=C(\C#N)c2nc3ccccc3n2C)cc(OC)c1OC	inactive: -1.02%
Cn1c(=O)c2c(-c3cccc(Br)c3)n(CCO)cc2n(C)c1=O	inactive: 3.75%
CCOc1ccc(CNC(=O)c2cc3ccccn3n2)cc1OC	inactive: 1.05%
CCN1CCN(c2oc(/C=C/c3ccccc3OC)nc2C#N)CC1	inactive: -18.3%
COc1cccc(NS(=O)(=O)c2ccc3[nH]cc(C(=O)N4CCCCCC4)c(=O)c3c2)c1	inactive: -6.52%

SMILES	activation
Cc1ccc(-n2c(=O)c3ccc(C(=O)NCc4ccccc4Cl)cc3n(Cc3ccccc3F)c2=O)cc1	inactive: 14.3%
CCOC(=O)c1c(-c2ccc(C)cc2)csc1NC(=O)c1nc(SCC)ncc1Cl	inactive: 19.7%
CC1CCN(CCCNC(=O)c2cc(Sc3ccc(F)cc3)nc3ccccc23)CC1	inactive: -13.6%
CCc1ccc(CN(Cc2cn[nH]c2-c2ccc(OC)cc2)C(=O)Nc2ccc(C)c(F)c2)cc1	inactive: -21.4%
Nc1cccc(-c2cn3ccsc3n2)c1	inactive: 6.7%
CSc1nnc(NC(=O)Cc2coc3cc(C)ccc23)s1	inactive: 9.96%
CCOC(=O)c1c(-c2ccccc2)oc2ccc(NS(=O)(=O)c3ccc(C)cc3C)cc12	inactive: -17.5%
COc1ccc(Cn2c(=O)c3cccnc3n(Cc3cccc(OC)c3)c2=O)cc1	inactive: -10.6%
O=C(NC1CC(=O)N(c2cccc(F)c2)C1)C1CC1 (centres undefined)	inactive: 5.29%
Cc1ccc(NC(=O)c2oc3ccccc3c2NC(=O)c2ccccc2C)cc1	inactive: -16.9%
COCCNC(=O)c1c(C)oc2nc(C)nc(N3CCOCC3)c12	inactive: -7.66%
O=C(NCCCN1CCN(c2ccc(F)cc2)CC1)Nc1ccc(Cl)cc1	active: 82.6%
CCOC(=O)c1cccc(NC(=O)c2ccc3c(Cl)c4c(nc3c2)CCC4)c1	inactive: -9.32%
CCOC(=O)c1c(NC(=O)c2ccccc2Cl)sc2c1CCCC2	inactive: -0.924%
COc1ccc(C2c3c(-c4c(C)cc(C)cc4O)n[nH]c3C(=O)N2Cc2ccco2)cc1 (centres undefined)	inactive: 38.2%
COc1ccc2c(c1)c(CC(=O)O)c(C)n2C(=O)c1ccc(Cl)cc1	inactive: -9.88% and inactive: -18.2%
COc1cccc(-c2nc(CS(=O)(=O)CC(=O)NCc3ccc(C)cc3)c(C)o2)c1	inactive: -16.7%
CCOc1cc(-c2nc3c(c(CC)nn3-c3ccccc3)c3cc(OC)c(OC)cc23)ccc1O	inactive: -0.834%
Cc1ccc(-c2nnc(SCc3ccccc3C#N)o2)cc1	inactive: -17.4%
Cc1ccc(C)c(NC(=O)Cn2c(=O)n(Cc3ccco3)c(=O)c3oc4ccccc4c32)c1	inactive: -21.9%
Cc1ccc2c(c1)NC(c1cccnc1)=NC(c1ccc(F)cc1)=N2	inactive: -0.168%
Oc1cc(O)c2c(c1)O[C@H](c1ccc(O)c(O)c1)[C@H](O)C2	inactive: -50.8%
Nc1nc2ccc(OC(F)(F)F)cc2s1	inactive: 10% and inactive: 1.14%
CCOC(=O)C(CC)n1nc(C)n2c(cc3occc32)c1=O (centres undefined)	inactive: 0.468%
COc1ccc(C(=O)COC(=O)c2cccc(NC(=O)c3ccc(OC)c(OC)c3)c2)cc1	inactive: 1.61%
Cc1cccc(OCC(=O)OCc2cc(=O)n3nc(C4CCCCC4)sc3n2)c1	inactive: -2.38%
Cc1csc2nc(-c3cccc(NC(=O)c4ccccc4Cl)c3)cn12	inactive: -6.27%
